Reference: PubChem BioAssay AID1347073 (National Center for Advancing Translational Sciences (NCATS), 2019)
Hit rate of the full screen: of about 45,000 compounds, about 200 (0.44%) were called active. Inconclusive results (about 7%) are left out. Calls come from the whole dose curve; as a rule, active = well fitted activation curve with a large enough effect; inconclusive = small, poorly fitted or top-dose-only effect; inactive = no such curve, though single readings can be large or run the other way. The list shows a part of the results.

Assay: qHTS of TDP-43 Inhibitors: NCGC Sytravon Library Screen; note: 0% is about no effect; nearly all actives have a fitted effect of over 55% in size
Settings: yeast TDP-43 toxicity rescue, BacTiter-Glo growth, 24 h; series mostly up to 46.1 µM; growth rescue (activation): at the top concentration
In short: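 TDP-43-expressing yeast, pregrown in raffinose, seeded at OD600 0.02 in galactose medium with compound for 24 hr at 30 deg C. Growth read by BacTiter-Glo luminescence, so rescue of toxicity appears as activation.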

Structure (SMILES) | growth rescue (activation)
S=C(Nc1ccc(Br)cc1Cl)NN1CCOCC1 | inactive: -0.534%
CC(C)Oc1ccc(C(=O)Nc2ccc(C(F)(F)F)n(C)c2=O)cc1 | inactive: -0.681%
CC1=NNC(=O)C1CC(=O)N/N=C/C(C)=C/c1ccccc1 (configuration not stated) | inactive: 12.2%
C=CC[n+]1c(/C=C2\C=Cc3cc(C)ccc3N2CC)ccc2ccccc21 | inactive: -88.9%
Cc1ccc(C)c(NC(=O)COC(=O)CNC(=O)C2CCCCC2)c1 | inactive: 22%
CCc1nc2c(OCc3ccccc3C(=O)OC)cccn2c1N(C)C(=O)CC(C)C | inactive: -1.66%
COc1ccc(Cc2[nH]n3c(=O)cc(C)nc3c2-c2ccccc2)cc1 | inactive: 13.1%
Cc1ccc(N2C(=O)CC(N3CCN(c4ccc(F)cc4)CC3)C2=O)c(C)c1 (configuration not stated) | inactive: 6.69%
CCCC1CCC(c2ccc(C(N)=O)cc2)CC1 (configuration not stated) | inactive: -1.71%
O=C(CN1CCN(c2ccccn2)CC1)N1CC(O)CO1 (configuration not stated) | inactive: 4.85%
CCCN(CC(=O)Nc1ccccc1OC)C(=O)c1cnc(Cl)c(Cl)c1 | inactive: 4.56%
COc1ccccc1CNC(=O)C1(C)CCN1Cc1ccc(OC(F)(F)F)cc1 (configuration not stated) | inactive: 9.47%
CCCCN(C(=O)CSc1nnc(Nc2ccccc2)s1)c1c(N)n(CCC)c(=O)[nH]c1=O | inactive: 7.03%
COc1ccc(/C=C/C(=O)NC(=S)Nc2ccccc2)cc1OC | inactive: -11.1%
Cc1ccc2c(c1)Cc1nc3ccccc3nc1-2 | inactive: 21.3%
CCOc1nc(NC(=O)NS(=O)(=O)c2cccc(Cl)c2)nc(-c2ccccc2)n1 | inactive: 12.7%
Cc1ccc(S(=O)(=O)N2CCOCC2)cc1NC(=O)COc1ncnc2ccccc12 | inactive: -14.6%
CCCN1Cc2cccc(C(=O)Nc3ccc(CN4CCCC4)cc3)c2C1=O | inactive: -3.28%
Cc1ccc(N(CC(=O)NCc2ccccc2)C(=O)c2csnn2)c(C)c1 | inactive: -8.05%
CCCn1c(=O)[nH]c(=O)c2c1nc(-c1ccccc1)n2CCN1CCOCC1 | inactive: 18.2%
O=C(O)c1ccc(NCc2nc3ccccc3n2Cc2ccccc2)cc1 | inactive: 26.5%
COc1ccccc1-n1cc(-c2ccc([N+](=O)[O-])cc2)[nH]c1=S | inactive: -4.21%
Cc1nc(NC2=NCN(CCCN3CCOCC3)CN2)nc2c(C)cccc12 | inactive: 5.36%

Structure (SMILES) | growth rescue (activation)
N#Cc1ccccc1NC(=O)CN(Cc1ccccc1)Cc1ccccc1 | inactive: -7.13%
OCC1CCCN(Cc2cn(Cc3ccccc3)nc2-c2cc3ccccc3o2)C1 (configuration not stated) | inactive: 2.11%
CC1=NOC(=O)/C1=C\c1ccc(-c2ccc(Cl)cc2Cl)o1 | inactive: 26.9%
Cc1ccc(NC(=O)Cn2c(CCC(=O)O)ccc2-c2cccs2)cc1Cl | inactive: 9.12%
COc1ccc(/C=C/C(=O)OCC(=O)Nc2cc(C(N)=O)cc(C(N)=O)c2)cc1 | inactive: 14.2%
CCN(CC(=O)Nc1ccccc1C(=O)NC1CC1)Cc1cccs1 | inactive: 14.9%
Cc1noc(C)c1C(=O)OCC(=O)/C=C1/N(C)c2ccccc2C1(C)C | inactive: -10.1%
CCOc1ccc(S(=O)(=O)Nc2ccccc2C(=O)N/N=C/c2c(OC)ccc3ccccc23)cc1 | inactive: -21.3%
Cc1nc(NCC2CCCO2)[nH]c(=O)c1CCC(C)C (configuration not stated) | inactive: -10.2%
O=C(c1ccc2c(=O)n(Cc3ccccc3)c(=S)[nH]c2c1)N1CCOCC1 | inactive: 10.4%
N#Cc1ccc(NC(=O)COC(=O)CCNS(=O)(=O)c2ccccc2)cc1 | inactive: 16.7%
CCOC(=O)C1CCN(C(=S)NC2CCCC2)CC1 | inactive: 19.6%
FC(F)(F)c1ccc(Cl)c(NC(=S)N/N=C/c2ccccc2C(F)(F)F)c1 | inactive: 7.55%
CCOC(=O)CC(NS(=O)(=O)c1ccc2[nH]cc(C(=O)O)c(=O)c2c1)c1ccc(OCC)c(OC)c1 (configuration not stated) | inactive: -2.95%
COc1ccc(OC)c(N(C(=O)c2ccco2)C(C(=O)NC2CCCC2)c2cc(OC)c(OC)c(OC)c2)c1 (configuration not stated) | inactive: -0.351%
O=C(NCC1(c2ccccc2)CCCC1)c1ccco1 | inactive: -1.27%
CCN1CCN(CCOc2ccccc2OCc2ccccc2)CC1 | inactive: -0.103%
Cc1noc(C)c1C(=O)N1CCC(CO)(Cc2ccccc2)CC1 | inactive: 15.7%
O=C(CN(C(=O)c1csnn1)c1ccccc1)NCc1ccc2c(c1)OCO2 | inactive: -1.02%
Brc1ccc2c(c1)[C@H]1OCC[C@H]1[C@@H](c1cccs1)N2 | inactive: 23.9%
COc1ccc(/C=C/C(=O)N2CCC(c3ccccc3)C2)cc1 (configuration not stated) | inactive: 13.4%
Cc1nonc1CN(C)C(=O)CC1C(=O)NCCN1Cc1cccc(C(F)(F)F)c1 (configuration not stated) | inactive: 5.79%
COc1ccc(C2C(C#N)=C(N)Oc3n[nH]c(-c4ccccn4)c32)c(OC)c1OC (configuration not stated) | inactive: -8.64%

Structure (SMILES) | growth rescue (activation)
CC(C)CC(N)c1csc(NC(=O)Nc2ccccc2C(C)C)n1 (configuration not stated) | inactive: 13.6%
COCc1cccc(-c2csc(C(NC(C)=O)c3cccc(OC)c3)n2)c1 (configuration not stated) | inactive: 4.38%
OC(c1ccc(F)cc1)c1ncc(-c2ccccc2Cl)[nH]1 (configuration not stated) | inactive: 2.86%
O=C(COC(=O)c1cccs1)Nc1ccc(S(=O)(=O)N2CCOCC2)cc1 | inactive: 7.53%
CCOc1ccc(S(=O)(=O)N2CCN(C(=S)NCc3ccco3)CC2)cc1 | inactive: -23.2%
CCOC(=O)N1CCN(c2nc(-c3cccs3)nc3ccccc23)CC1 | inactive: 5.56%
COc1ccccc1N1CCN(C(=O)CN2C(=O)c3ccccc3C2=O)CC1 | inactive: 4.25%
CC(=O)NC(C)(c1ccccc1)c1nc(-c2cccc(F)c2)cs1 (configuration not stated) | inactive: 15%
CCOc1ccc(NC(=O)NC2CCS(=O)(=O)C2)cc1 (configuration not stated) | inactive: 10.5%
O=C(NCCCl)NNC(=O)c1cc2ccccc2cc1O | inactive: -24.4%
CNc1ncnc2c1ncn2[C@H]1CN(C2CCCC2)C[C@@H](CO)O1 | inactive: 10.9%
COc1ccc(N2CCN(CC(O)COc3ccc(C)cc3C)CC2)cc1 (configuration not stated) | inactive: -7.59%
COc1cccc(C(=O)NCC(=O)N/N=C/c2cn[nH]c2-c2ccccc2)c1 | inactive: 13.7%
O=C(NNC(=O)c1cc(-c2ccccc2)nn1-c1ccccc1)c1ccccc1 | inactive: 25.7%
CC(=O)OC[C@@H]1CN(Cc2ccccc2)C[C@H](n2cnc3c(NCc4ccc(F)cc4)ncnc32)O1 | inactive: 4.65%
C/C(CC(=O)Nc1ccc2c(c1)OCCO2)=N\NC(=O)COc1ccc(C)cc1Br | inactive: 18.5%
CNC(=S)NNS(=O)(=O)c1ccc(OC)cc1OC | inactive: 7.62%
Cc1oc(-c2cccs2)nc1CN1CCC(C(=O)N2CCCC2)CC1 | inactive: 17.2%
CCc1ccc(C(=O)N2CCN(c3ccc(NC(=O)c4ccco4)cc3)CC2)cc1 | inactive: 40.5%
S=c1[nH]nc(-c2cccc(Cl)c2)n1Cc1ccccc1 | inactive: 20.5%
O=C(CCc1nnc(-c2ccc3c(c2)OCO3)o1)N1CCC(c2ccc(F)cc2)C1 (configuration not stated) | inactive: 21.5%
